Data reported in PubChem BioAssay (Tox21).
Inconclusive results, whose numbers are uncertain, are shown with a selection of clear calls. Potencies beside an inconclusive call are fits to weak or partial responses and may not hold up. Calls of active or inactive are those of the source. The call rests on the fitted dose curve; in most records, active means well fitted activation curve with a large enough effect in the repeat runs; inconclusive means weak or mixed curves; inactive means flat fitted curve, though single readings scatter.

Experiment: A CellTox Green Cytotoxicity Assay to monitor cytotoxicity in HEK293 cells - 40 hour (AID 1224871); further: nearly all actives have a fitted effect of over 45% in size
Details: CellTox Green fluorescence; series mostly up to 76.8 µM; cytotoxicity increase: at the top concentration
Text: National Center for Advancing Translational Sciences [NCATS]
NIH Chemical Genomics Center [NCGC]
U.S. Environmental Protection Agency [EPA]
National Institutes of Environmental Health Sciences [NIEHS]
National Toxicology Program [NTP]
Cell-based models are critical for drug discovery. Determining the natural cytotoxic effects resulting from test compounds is an essential research activity. A CellTox Green Cytotoxicity Assay to monitor cytotoxicity in real time of continues cell culture during 40 hours of the compound treatment was used to screen Tox21 10K library compounds in Hek293 cells. CellTox Green Cytotoxicity Assay is a nonlytic, homogeneous, biofluorescent method to measure cytotoxicity in cell culture after experimental manipulation. The assay system uses a proprietary asymmetric cyanine dye that is excluded from viable cells but preferentially stains the dead cell's DNA. […] Viable cells produce no appreciable increases in fluorescence. Therefore, the fluorescence signal produced by the binding interaction with dead cell DNA is proportional to cytotoxicity.
The mixture of Hek293 cell suspension and reagents were dispensed at 600cells/6 ul/well in 1536-well tissue culture treated black solid bottom plates using a Multidrop dispenser. After the assay plates were incubated at a 37 C/5% CO2 incubator for 5 hours, 23 nL of compounds dissolved in DMSO, positive and negative controls was transferred to the assay plate by a pintool work station. The plates were incubated at 37 C for 40 hours. The fluorescence intensity were measured at 0h, 8h, 16h, 24h, 32h and 40h time points using ViewLux plate reader during compound treatment.
On the % scale 0 is the no-effect control and ±100 the full control effect; potency means the concentration at half of the fitted maximal effect; tags describe the fitted curve by direction and shape.

SMILES | Potency | cytotoxicity increase
CC(C)CO | inconclusive: 0.0996 µM [activator, partial curve, poor fit] | 
O=[N+]([O-])c1ccc(NCCO)c(OCCO)c1 |  | inactive: -1.14%
O=C(Cl)c1ccc(C(=O)Cl)cc1 | inconclusive: 61.8 µM [activator, single point] | 
Cc1ccc2ncccc2c1 | inconclusive: 0.347 µM [activator, partial curve, poor fit] | 
c1ccc(Oc2ccccc2)cc1 | inconclusive: 34.7 µM [activator, partial curve] | 
O=C1CCCCCCCCCCC(=O)OCCO1 | inconclusive: 27.5 µM [activator, full curve, poor fit] | 
CCCOC(C(=O)OC1CCN(C)CC1)(c1ccccc1)c1ccccc1 | inconclusive: 26.8 µM [activator, single point] | 
CNCCCC1c2ccccc2C=Cc2ccccc21 | inconclusive: 26.8 µM [activator, single point] | 
CCOC(=O)c1cnc2c(cnn2CC)c1NN=C(C)C | inconclusive: 26.8 µM [activator, single point] | 
OCCOCCOCCO | inactive | 
CO[Si](CCCS)(OC)OC |  | inactive: 4.19%
CC(C)c1ccccc1 | inconclusive: 57 µM [activator, partial curve, poor fit] | 
CC(C)C(=O)OCCc1ccccc1 | inconclusive: 54.9 µM [activator, partial curve, poor fit] | 
CC(C)(Oc1ccc(C2CC2(Cl)Cl)cc1)C(=O)O (stereo not given) | inconclusive: 59.2 µM [activator, single point] | 
CCCCCCCCCCCC[N+](C)(C)CC(=O)[O-] | inconclusive: 43.6 µM [activator, partial curve, poor fit] | 
COc1ccc(C(=O)Nc2ccccc2)cc1[N+](=O)[O-] | inconclusive: 55.4 µM [activator, single point] | 
CC/C=C\CCOC(=O)CCCCC | inconclusive: 49 µM [activator, partial curve, poor fit] | 
O=C1c2ccccc2CCc2ccccc21 | inconclusive: 56.1 µM [activator, single point] | 
C=CCOCC(O)CO (stereo not given) | inconclusive: 61.6 µM [activator, single point] | 
C=CC(=O)NCOCCCC | inconclusive: 8 µM [activator, partial curve, poor fit] | 

SMILES | Potency | cytotoxicity increase
Cc1ccc(Nc2nccc(N(C)c3ccc4c(C)n(C)nc4c3)n2)cc1S(N)(=O)=O | inconclusive: 3.01 µM [activator, partial curve] | 
C=CC(=O)OCCCCCCCC |  | inactive: -12.5%
COc1ccnc2c1CCCCC2S(=O)c1nc2ccccc2[nH]1 (stereo not given) |  | inactive: -0.0414% [at 35.3 µM]
CCCCCCC=O | inconclusive: 49 µM [activator, partial curve] | 
CCC(=O)OCCOc1ccccc1 |  | inactive: -2.04%
Cc1ncc([N+](=O)[O-])n1C | inconclusive: 54.1 µM [activator, single point] | 
Cn1c(NCCN(CCO)CCCc2ccc([N+](=O)[O-])cc2)cc(=O)n(C)c1=O |  | inactive: 12.7% [at 35.3 µM]
O=C1OC2(c3ccccc31)c1ccc(O)c(Br)c1Oc1c2ccc(O)c1Br | inconclusive: 6.16 µM [activator, partial curve, poor fit] | 
CC(C)(c1ccc(Oc2ccc3c(c2)C(=O)OC3=O)cc1)c1ccc(Oc2ccc3c(c2)C(=O)OC3=O)cc1 |  | inactive: -2.95%
Cn1ccc2cc3c(cc21)CCN3C(=O)Nc1cccnc1 |  | inactive: -10.7% [at 15.8 µM]
C=CC(=O)OCC(C)OCC(C)OCC(C)OC(=O)C=C (stereo not given) | active: 54.9 µM | 
CCC(C)c1cc(C(C)(C)C)c(O)c(C(C)(C)C)c1 (stereo not given) | inconclusive: 24.1 µM [activator, full curve, poor fit] | 
CCN(CC)c1ccc(N=Nc2ccccc2)cc1 |  | inactive: -15.5%
Cn1c(=O)c2c(ncn2CC(=O)O)n(C)c1=O |  | inactive: -20.4% [at 35.3 µM]
FC(F)(F)c1ccc(Cl)c(Cl)c1 | inactive | 
O=C(OCC1(COC(=O)c2cccnc2)CCCC(COC(=O)c2cccnc2)(COC(=O)c2cccnc2)C1O)c1cccnc1 |  | inactive: 9.85% [at 35.3 µM]
Cc1ccc(C(C)C)cc1O | inconclusive: 49 µM [activator, single point] | 
C#C[C@]1(O)CC[C@H]2[C@@H]3CCC4=CC(=O)CC[C@@H]4[C@H]3CC[C@@]21C | inconclusive: 38.9 µM [activator, partial curve] | 
CC(C)=CCC/C(C)=C/CC/C(C)=C/CO | inconclusive: 54.9 µM [activator, single point] | 
COC(=O)C1=C(C)NC(C)=C(C(=O)OC(C)C)C1c1cccc2nonc12 (stereo not given) |  | inactive: -9.72% [at 35.3 µM]
